# According to patent US5340727A, “GPIbα fragments and recombinant DNA expression vectors” (The Scripps Research Institute, priority 1990, dated 1994):
# “And” between values parts separate entries of the source, which are not always exact repeats. Equal entries are not always repeated. At least one peptide structure holds a part that was inferred or is arguable (an end, a ring closure or a residue). For some of these results: At least one compound was matched to its structure with a doubt left. Bridges are numbered along the chain shown (N, C = ends). Roman numbers before positions name the chains, in order. Where no end group is shown, it is not given here.
# Columns and labels:
# platelet-rich plasma = assay: Inhibition of asialo-vWF-induced aggregation (Example 4); format: cell-based; conditions: peptide concentration 55 μM, asialo-vWF 15 μg/ml
# GPIb-IX (Homo sapiens) = tested on: T1, GPIb-IX (Homo sapiens); assay: Ristocetin-dependent 125I-vWF binding to formaldehyde-fixed washed platelets (Examples 5-7); conditions: for inhibition of ristocetin-dependent vWF binding (FIG. 1b, in words): peptide 500 μmol/l
# T1 construct: which utilizes washed platelets fixed with formaldehyde; endogenous in cells; host or cells: washed platelets fixed with formaldehyde
# T1 sequence (P04275 764-2813 limits assumed): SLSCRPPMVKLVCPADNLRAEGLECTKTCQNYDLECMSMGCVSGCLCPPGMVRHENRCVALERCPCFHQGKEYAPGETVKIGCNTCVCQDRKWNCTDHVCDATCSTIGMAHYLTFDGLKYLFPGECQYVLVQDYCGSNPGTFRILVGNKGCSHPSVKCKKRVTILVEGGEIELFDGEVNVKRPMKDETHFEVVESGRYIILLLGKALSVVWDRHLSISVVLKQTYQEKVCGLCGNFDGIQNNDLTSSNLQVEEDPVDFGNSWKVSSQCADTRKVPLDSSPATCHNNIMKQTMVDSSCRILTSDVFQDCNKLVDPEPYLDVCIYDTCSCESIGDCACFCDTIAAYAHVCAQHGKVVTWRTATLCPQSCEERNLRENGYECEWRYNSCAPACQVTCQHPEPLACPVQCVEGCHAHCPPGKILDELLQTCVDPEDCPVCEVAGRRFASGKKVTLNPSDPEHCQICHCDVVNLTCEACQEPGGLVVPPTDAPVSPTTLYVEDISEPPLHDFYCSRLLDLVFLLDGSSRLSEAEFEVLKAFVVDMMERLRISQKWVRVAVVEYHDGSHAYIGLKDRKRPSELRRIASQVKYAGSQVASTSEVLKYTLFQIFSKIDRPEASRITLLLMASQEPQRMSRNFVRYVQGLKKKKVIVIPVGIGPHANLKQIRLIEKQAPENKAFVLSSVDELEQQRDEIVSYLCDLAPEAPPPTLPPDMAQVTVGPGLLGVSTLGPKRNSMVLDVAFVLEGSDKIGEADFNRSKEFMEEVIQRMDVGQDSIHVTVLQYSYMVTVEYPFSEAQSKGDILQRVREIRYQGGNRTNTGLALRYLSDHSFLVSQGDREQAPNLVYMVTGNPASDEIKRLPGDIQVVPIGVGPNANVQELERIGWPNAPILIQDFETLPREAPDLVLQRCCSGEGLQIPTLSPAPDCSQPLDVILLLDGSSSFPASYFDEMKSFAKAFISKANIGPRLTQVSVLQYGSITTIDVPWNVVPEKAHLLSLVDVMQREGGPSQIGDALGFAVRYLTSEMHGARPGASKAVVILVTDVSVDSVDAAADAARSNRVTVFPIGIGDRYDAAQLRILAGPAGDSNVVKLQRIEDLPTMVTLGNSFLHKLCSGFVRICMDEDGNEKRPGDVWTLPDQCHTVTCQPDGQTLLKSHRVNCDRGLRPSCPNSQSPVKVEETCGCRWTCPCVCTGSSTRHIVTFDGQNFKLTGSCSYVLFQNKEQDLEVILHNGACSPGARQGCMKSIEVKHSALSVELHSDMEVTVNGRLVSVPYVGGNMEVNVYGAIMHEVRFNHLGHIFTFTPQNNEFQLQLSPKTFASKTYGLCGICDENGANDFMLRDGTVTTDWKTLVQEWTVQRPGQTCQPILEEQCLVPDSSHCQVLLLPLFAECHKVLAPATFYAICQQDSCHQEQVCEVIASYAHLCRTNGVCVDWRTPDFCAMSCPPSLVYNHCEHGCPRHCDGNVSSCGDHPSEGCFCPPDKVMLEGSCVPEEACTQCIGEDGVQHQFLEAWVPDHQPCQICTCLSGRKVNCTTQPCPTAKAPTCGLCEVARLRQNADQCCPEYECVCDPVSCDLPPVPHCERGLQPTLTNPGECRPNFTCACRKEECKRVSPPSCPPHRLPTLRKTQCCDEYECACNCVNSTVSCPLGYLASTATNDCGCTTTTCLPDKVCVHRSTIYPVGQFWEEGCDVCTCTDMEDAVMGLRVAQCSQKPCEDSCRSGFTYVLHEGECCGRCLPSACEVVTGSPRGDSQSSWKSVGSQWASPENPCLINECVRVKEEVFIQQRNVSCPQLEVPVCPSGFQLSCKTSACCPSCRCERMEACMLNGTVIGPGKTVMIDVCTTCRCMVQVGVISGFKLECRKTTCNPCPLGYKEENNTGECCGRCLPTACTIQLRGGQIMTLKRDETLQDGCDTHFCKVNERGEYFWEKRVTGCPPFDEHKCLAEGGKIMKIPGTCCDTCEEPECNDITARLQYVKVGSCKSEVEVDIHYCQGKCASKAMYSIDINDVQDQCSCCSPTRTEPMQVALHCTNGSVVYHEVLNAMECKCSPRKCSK
# vWF-GPIb interaction [1] = target: T2, vWF-GPIb interaction (Homo sapiens, UniProt P04275+P07359); assay: Inhibition of asialo-vWF binding to fresh platelets (Example 2); conditions: 125I-asialo-vWF 5 μg/ml
# T2 construct: endogenous in cells; host or cells: fresh or formalin-fixed platelets
# T2 sequence (P07359 17-652): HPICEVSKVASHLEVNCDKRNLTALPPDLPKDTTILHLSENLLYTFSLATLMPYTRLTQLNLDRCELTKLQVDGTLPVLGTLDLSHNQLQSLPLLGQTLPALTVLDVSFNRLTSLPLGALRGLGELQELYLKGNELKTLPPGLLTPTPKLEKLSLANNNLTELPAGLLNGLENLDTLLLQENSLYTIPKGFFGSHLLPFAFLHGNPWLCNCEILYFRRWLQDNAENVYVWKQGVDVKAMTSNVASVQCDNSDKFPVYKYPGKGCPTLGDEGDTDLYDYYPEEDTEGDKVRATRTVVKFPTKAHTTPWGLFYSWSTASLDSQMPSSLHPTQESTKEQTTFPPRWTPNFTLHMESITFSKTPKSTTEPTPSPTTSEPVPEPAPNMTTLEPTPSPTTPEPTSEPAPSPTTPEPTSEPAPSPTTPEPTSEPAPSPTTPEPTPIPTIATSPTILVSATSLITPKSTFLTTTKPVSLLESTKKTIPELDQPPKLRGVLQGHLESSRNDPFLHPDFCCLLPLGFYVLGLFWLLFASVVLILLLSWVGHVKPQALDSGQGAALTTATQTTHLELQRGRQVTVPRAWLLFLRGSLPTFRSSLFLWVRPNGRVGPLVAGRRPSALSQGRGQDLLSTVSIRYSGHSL
# T2 sequence (P04275 764-2813 limits assumed): as the sequence (P04275 764-2813 limits assumed) above
# Experimental: Fresh platelets were prepared by drawing blood into a solution of 11 mM trisodium citrate and 2 mM EDTA. Platelet-rich plasma was then prepared by differential centrifugation. The platelet count was then adjusted to 1×10^11 /l. Peptides were then added to various concentrations and ^125 I-asialo-vWF was then added at a final concentration of 5 μg/ml. After incubation for 30 minutes at room temperature, bound and free vWF ligand were separated by centrifuging 50 μl of the mixture through 300 μl of 20% sucrose at 12,000 g for 4 minutes. The platelet pellet was then separated from the rest of the mixture to determine platelet-bound radioactivity. Non-specific binding was defined as the residual binding of ^125 I- asialo-vWF in the presence of a 50-fold excess of unlabeled vWF but in the absence of any peptides.
# Percent inhibition with a given peptide was calculated by dividing the specific cpm obtained when various concentrations of peptide were added by the specific cpm in the absence of peptide.
# vWF-GPIb interaction [2] = target: T2, vWF-GPIb interaction; assay: Inhibition of ristocetin-induced binding of vWF to formalin-fixed platelets (Example 1); conditions: assay not specified there
# Experimental: To test the inhibitory activity of the peptides of the present invention, formalin-fixed platelets were used at a final concentration of 1×10^11 /l. Assayed peptides were then added at various concentrations. One third final volume of vWF-deficient plasma was then added followed by ^125 I-vWF at a final concentration of 5 μg/ml. Ristocetin was then added at a concentration of 1.0 mg/ml. After incubation for o30 minutes at room temperature, bound and free vWF ligand were separated by centrifuging 50 μl of the mixture through 300 μl of 20% sucrose at 12,000 g for 4 minutes. The platelet pellet was then separated from the rest of the mixture to determine platelet-bound radioactivity. Nonspecific binding was defined as the residual binding of ^125 I-vWF in the presence of a 50-fold excess of unlabeled vWF but in the absence of any peptides.
# Percent inhibition with a given peptide was calculated by dividing the specific cpm […].
compound,measurement,setting,value
KRKRKRKRKR [(KR)5],inhibition of asialo-vWF-induced aggregation,platelet-rich plasma,88%
KQGVDVKAMTSNVAS [compound 21],"inhibition of ristocetin-dependent vWF binding (FIG. 1b, in words)",GPIb-IX (Homo sapiens); 125I-vWF 2 μg/ml,inhibited
I: SDKFPVYKYPGKGCPTLGDEGDTDLYDYY / II: SDKFPVYKYPGKGCPTLGDEGDTDLYDYY (disulfide I:14-II:14),inhibition of vWF binding by cysteine dimer (in words),GPIb-IX (Homo sapiens); in vitro conditions of the vWF binding assays,particularly effective at inhibiting vWF binding
KRKRKR [(KR)3],concentration at which complete inhibition was seen,vWF-GPIb interaction [1],60 µM and 120 µM
same,inhibition of asialo-vWF-induced aggregation,platelet-rich plasma,no significant inhibition
KRKRKRKRKRKRKR [(KR)7],inhibition of asialo-vWF-induced aggregation,platelet-rich plasma,100%
N=C(N)NCCC[C@H](NC(=O)[C@H](CCCNC(=N)N)NC(=O)[C@H](CCCNC(=N)N)NC(=O)[C@H](CCCNC(=N)N)NC(=O)[C@H](CCCNC(=N)N)NC(=O)[C@H](CCCNC(=N)N)NC(=O)[C@H](CCCNC(=N)N)NC(=O)[C@H](CCCNC(=N)N)NC(=O)[C@H](CCCNC(=N)N)NC(=O)[C@H](CCCNC(=N)N)NC(=O)[C@@H](N)CCCNC(=N)N)C(=O)O [(R)11],inhibition of the interaction of vWF with GPIb (summary statement),vWF-GPIb interaction [2],inhibit the interaction of vWF with GPIb
KRKRKRKRGDV [(KR)4 GDV],concentration at which complete inhibition was seen,vWF-GPIb interaction [1],44 µM
SDKFPVYKYPGKGCPTLGDEGDTDLYDYY,IC50,"GPIb-IX (Homo sapiens); 125I-vWF 2 μg/ml, read-out: concentration that inhibits 50% of ristocetin-induced binding of vWF",170 µM
LKTLPPGLLTPTPKL [compound 14],"inhibition of ristocetin-dependent vWF binding (FIG. 1b, in words)",GPIb-IX (Homo sapiens); 125I-vWF 2 μg/ml,inhibited
